For this assay, the system named is 922993-354-T-J3-PDC complex spheroids, viability. Briefly: Anticancer human tumor 922993-354-T-J3-PDC patient-derived endometrial carcinoma cell line growth inhibition [GQUAD]. Particulars: for viability, T/C: stronger effect = lower value. From the text:
DNA G-quadruplex Stabilizer Agents in Combinations in Complex Spheroids
A high-throughput screen of multi-cell type tumor spheroids was designed to identify active combinations of DNA G-quadruplex stabilizer agents and targeted small molecules. Complex spheroids include a stromal component modeled by human endothelial cells (HUVEC) and fibroblasts modeled by human mesenchymal stem cells (MSCs). The concentration ranges selected for each drug and investigational agent were based upon clinically achievable concentrations if the clinical Cmax of the agent was known.
Compounds. The drugs and investigational agents: pidnarulex (CX-5461; NSC782164), APTO-253 (NSC789042), BRACO-19 (NSC847499), peposertib (NSC802822), ceralasertib (NSC780249), elimusertib (NSC800525), camonsertib (NSC841442), AZD-1390 (NSC803789), olaparib (NSC753686), talazoparib (NSC767125), ART-558 (NSC835418), sotorasib (NSC818433), MRTX-1133 (NSC836407), SN-38 (NSC673596), topotecan (NSC609699), etoposide (NSC141540), doxorubicin (NSC123127), gemcitabine (NSC613327), 5-fluorouracil (NSC19893), paclitaxel (NSC125973), vemurafenib (NSC761431), panobinostat (NSC761190), R-306465 (JNJ-16241199; NSC773264), adavosertib (NSC754352), TP-3654 (NSC805149), carboplatin (NSC241240), KSQ-4279 (NSC840948), and staurosporine (NSC755774) were obtained from the National Cancer Institute (NCI) Developmental Therapeutics Program Chemical Repository (34). The FDA-approved anticancer drug set is available from the NCI Developmental Therapeutics Program. […] The stock solutions were prepared in dimethyl sulfoxide (DMSO, Sigma-Aldrich, St. Louis, MO, cat. D2650) at 800-fold the tested concentration and stored at -70 degrees C prior to their use. All drugs and investigational agents were tested over a range starting from a high concentration at or near the clinical Cmax and decreasing in half-log increments. If the clinical Cmax for an agent had not been determined, the highest concentration tested was 10 microM.
2.3 Cell Culture. All cells were maintained in an incubator at 37 degrees C and 5% CO2 with 95% humidity. The PDC lines were cultured according to standard operating procedures established by the NCI PDMR. All PDCs were thawed and cultured in Matrigel-coated flasks prepared with a working solution of 1X Ham's F-12 nutrient mix, without supplementation (Invitrogen, cat. 11765054), 100 U/mL penicillin-streptomycin (Invitrogen, cat. 15140122), and 2.5% Matrigel (Corning Inc., cat. 354248) for the first three passages. The 857933-349-R-J2-PDC line was cultured in 6C/Colon 1B media, which includes advanced DMEM/F-12 (Thermo Fisher Scientific, cat. 12634028), 10 mM HEPES (Thermo Fisher Scientific, cat. 15630080), 1X GlutaMAX supplement (Thermo Fisher Scientific, cat. 35050061), 0.1 mg/mL primocin (InvivoGen, cat. ant-pm-2), 10% defined fetal bovine serum, heat inactivated (HyClone Laboratories Inc., cat. SH30070.03HI), 50% L-WRN conditioned media (ATCC, cat. CRL-3276), 1.25 mM N-Acetyl-L-cysteine (Sigma-Aldrich, cat. A9165), 10 mM nicotinamide (Sigma-Aldrich, cat. N0636), 1X B-27 supplement (Thermo Fisher Scientific, cat. 17504044), 1X N-2 supplement (Thermo Fisher Scientific, cat. 17502048), 10 microM Y-27632 dihydrochloride (Tocris Bioscience, cat. 1254), and 50 ng/mL human EGF recombinant protein (Thermo Fisher Scientific, cat. PHG0311). The 485176-168-R4-J1-PDC line was cultured in Panc media, which includes all 6C/Colon 1B media components plus 100 ng/mL human FGF-10 (Thermo Fisher Scientific, cat. 100-26), 500 nM SB-431542 (Selleckchem, cat. S1067), and gastrin (Tocris, cat. 3006).
[…]

Some entries of the source have several records that differ or are many. This list holds those alone. There may be further records. The values listed for one entry are repeats (runs, samples, wells, individuals or studies). Marks such as (2×) give the number of equal values in this list.
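Note: spheroids exposed to compounds for seven days.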
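Throughout, for viability, T/C: 100% = DMSO vehicle control viability.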

By IC50 is commonly meant the concentration at which inhibition is half-maximal. With `Cc1cnc(CNC(=O)c2c(=O)c3ccc(N4CCCN(C)CC4)nc3n3c2sc2ccccc23)cn1`, the viability, T/C (compound alone 0.316 µM) is 42.8, 49, 48.4, 48.6, 59.4, 50, 36.6, 57.9, 52.2, 52.4, 54.3, 63.2%. Moreover, the IC50 (compound alone, run of 03/18/2024) is on record as 206 nM, > 10 µM, 10 µM, 933 nM, 5.13 µM, 368 nM, 256 nM, 1.47 µM, 498 nM, 614 nM, 3.65 µM.
Regarding `CN(C)c1ccc(Nc2c3ccc(NC(=O)CCN4CCCC4)cc3nc3cc(NC(=O)CCN4CCCC4)ccc23)cc1`, the viability, T/C was 93, 95.5, 106 (2×), 99.6, 91.4, 93.9, 102, 98.3, 87.6, 82.9, 108% (compound alone 0.0316 µM); 112, 80.8, 115, 129, 103, 88.4, 104, 76.8, 106, 87.2, 102, 95.3% (compound alone 0.1 µM); 95.5, 90.2, 98.7, 107, 93.6, 83.5, 96.8, 87, 102, 101, 99.3, 112% (compound alone 1 µM); 104 (3×), 118, 134, 102, 112 (2×), 98.9, 93.3, 97, 107% (compound alone 3.16 µM); 107, 112, 124 (2×), 129, 105 (2×), 114, 102, 108 (2×), 87.1% (compound alone 10 µM).
In the case of `Cc1[nH]c2ccc(F)cc2c1-c1nc2c3cccnc3c3ncccc3c2[nH]1`, the viability, T/C reads like this: (compound alone 0.0316 µM) 85, 90.4 (2×), 101 (2×), 80.6, 91, 97.1, 106 (2×), 94.7, 112%; (compound alone 0.1 µM) 106, 110 (2×), 101, 99, 97.5, 108, 97.2, 78.2, 96.1, 96.2, 88.2%; (compound alone 0.316 µM) 86.2, 98.5, 105, 118, 97.8, 116, 113, 119, 102, 98.9, 104, 107%; (compound alone 1 µM) 86.1, 107, 108, 105, 68.8, 98.7, 89.4, 110, 103, 109, 98.4, 99.1%; (compound alone 3.16 µM) 69.4, 107 (2×), 99.7, 112, 80.7, 96, 89.7, 118, 97.1, 102, 114%.

Values taken from PubChem BioAssay AID2060489 (Molecular Pharmacology Branch, DTP, NCI, 2025).
